# From US20190330365A1 (University of California, published 2019)
# T1: Activated leukocyte cell adhesion molecule (ALCAM), on cells (human, UniProt Q13740 28-583)
# T1 construct: whole, on cells; also called guide antigen
# T1 sequence (looked up): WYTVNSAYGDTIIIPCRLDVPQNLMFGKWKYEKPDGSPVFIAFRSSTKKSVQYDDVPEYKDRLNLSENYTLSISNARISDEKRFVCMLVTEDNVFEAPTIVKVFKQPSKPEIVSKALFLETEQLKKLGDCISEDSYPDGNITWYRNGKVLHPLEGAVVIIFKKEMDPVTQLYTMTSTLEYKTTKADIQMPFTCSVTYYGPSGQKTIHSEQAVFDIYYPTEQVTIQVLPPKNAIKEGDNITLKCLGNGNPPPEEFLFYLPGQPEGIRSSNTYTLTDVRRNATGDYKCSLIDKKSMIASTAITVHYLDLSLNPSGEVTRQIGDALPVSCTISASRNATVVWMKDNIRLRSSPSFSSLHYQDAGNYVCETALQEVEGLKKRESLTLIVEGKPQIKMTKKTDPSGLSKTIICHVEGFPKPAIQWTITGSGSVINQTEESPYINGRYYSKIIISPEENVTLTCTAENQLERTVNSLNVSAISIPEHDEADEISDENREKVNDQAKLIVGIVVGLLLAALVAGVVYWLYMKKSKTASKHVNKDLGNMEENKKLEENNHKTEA
# Legend:
# [1] = biological target: T2, Intercellular adhesion molecule 1 (ICAM-1), human, on cells (human, UniProt P05362 28-532); test: apparent KD, flow cytometry, curve fit; cell model HEK293-ICAM-1^low (cells also carry LRP6, bound by the E34N19 arm)
# T2 construct: whole, on cells; also called guide antigen
# T2 sequence (P05362 28-532): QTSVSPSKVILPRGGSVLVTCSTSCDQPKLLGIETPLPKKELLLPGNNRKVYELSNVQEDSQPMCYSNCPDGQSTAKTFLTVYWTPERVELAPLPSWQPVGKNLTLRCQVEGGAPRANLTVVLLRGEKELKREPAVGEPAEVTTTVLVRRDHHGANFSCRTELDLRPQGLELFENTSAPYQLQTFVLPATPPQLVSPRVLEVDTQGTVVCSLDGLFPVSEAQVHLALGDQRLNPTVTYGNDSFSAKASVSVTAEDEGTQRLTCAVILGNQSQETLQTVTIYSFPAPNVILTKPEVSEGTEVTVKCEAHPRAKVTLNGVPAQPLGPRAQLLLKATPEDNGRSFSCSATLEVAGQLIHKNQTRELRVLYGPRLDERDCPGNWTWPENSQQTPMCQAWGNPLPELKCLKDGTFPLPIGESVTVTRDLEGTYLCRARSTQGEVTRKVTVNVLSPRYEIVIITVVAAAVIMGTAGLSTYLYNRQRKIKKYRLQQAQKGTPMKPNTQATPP
# Procedure: (§1) The apparent antibody binding affinity was measured on target cells by FACS as described (An, Zhu). Briefly, 3×10⁵ cells were incubated with varying concentrations of antibodies in final 1 ml of FACS buffer. […] After 1 hr incubation, cells were washed and analyzed by FACS as described above. The apparent KD was determined by a curve fit method using MFI values as described (Benedict, An, Zhu).
# [2] = biological target: T2, Intercellular adhesion molecule 1 …; test: apparent KD, flow cytometry, curve fit; cell model HEK293-ICAM-1^Int (cells also carry LRP6, bound by the E34N19 arm)
# Procedure: as §1
# [3] = biological target: T3, Low-density lipoprotein receptor-related protein 6 (LRP6), human, on cells (human, UniProt O75581 20-1613); test: cell-based or functional assay
# T3 sequence (O75581 20-1613): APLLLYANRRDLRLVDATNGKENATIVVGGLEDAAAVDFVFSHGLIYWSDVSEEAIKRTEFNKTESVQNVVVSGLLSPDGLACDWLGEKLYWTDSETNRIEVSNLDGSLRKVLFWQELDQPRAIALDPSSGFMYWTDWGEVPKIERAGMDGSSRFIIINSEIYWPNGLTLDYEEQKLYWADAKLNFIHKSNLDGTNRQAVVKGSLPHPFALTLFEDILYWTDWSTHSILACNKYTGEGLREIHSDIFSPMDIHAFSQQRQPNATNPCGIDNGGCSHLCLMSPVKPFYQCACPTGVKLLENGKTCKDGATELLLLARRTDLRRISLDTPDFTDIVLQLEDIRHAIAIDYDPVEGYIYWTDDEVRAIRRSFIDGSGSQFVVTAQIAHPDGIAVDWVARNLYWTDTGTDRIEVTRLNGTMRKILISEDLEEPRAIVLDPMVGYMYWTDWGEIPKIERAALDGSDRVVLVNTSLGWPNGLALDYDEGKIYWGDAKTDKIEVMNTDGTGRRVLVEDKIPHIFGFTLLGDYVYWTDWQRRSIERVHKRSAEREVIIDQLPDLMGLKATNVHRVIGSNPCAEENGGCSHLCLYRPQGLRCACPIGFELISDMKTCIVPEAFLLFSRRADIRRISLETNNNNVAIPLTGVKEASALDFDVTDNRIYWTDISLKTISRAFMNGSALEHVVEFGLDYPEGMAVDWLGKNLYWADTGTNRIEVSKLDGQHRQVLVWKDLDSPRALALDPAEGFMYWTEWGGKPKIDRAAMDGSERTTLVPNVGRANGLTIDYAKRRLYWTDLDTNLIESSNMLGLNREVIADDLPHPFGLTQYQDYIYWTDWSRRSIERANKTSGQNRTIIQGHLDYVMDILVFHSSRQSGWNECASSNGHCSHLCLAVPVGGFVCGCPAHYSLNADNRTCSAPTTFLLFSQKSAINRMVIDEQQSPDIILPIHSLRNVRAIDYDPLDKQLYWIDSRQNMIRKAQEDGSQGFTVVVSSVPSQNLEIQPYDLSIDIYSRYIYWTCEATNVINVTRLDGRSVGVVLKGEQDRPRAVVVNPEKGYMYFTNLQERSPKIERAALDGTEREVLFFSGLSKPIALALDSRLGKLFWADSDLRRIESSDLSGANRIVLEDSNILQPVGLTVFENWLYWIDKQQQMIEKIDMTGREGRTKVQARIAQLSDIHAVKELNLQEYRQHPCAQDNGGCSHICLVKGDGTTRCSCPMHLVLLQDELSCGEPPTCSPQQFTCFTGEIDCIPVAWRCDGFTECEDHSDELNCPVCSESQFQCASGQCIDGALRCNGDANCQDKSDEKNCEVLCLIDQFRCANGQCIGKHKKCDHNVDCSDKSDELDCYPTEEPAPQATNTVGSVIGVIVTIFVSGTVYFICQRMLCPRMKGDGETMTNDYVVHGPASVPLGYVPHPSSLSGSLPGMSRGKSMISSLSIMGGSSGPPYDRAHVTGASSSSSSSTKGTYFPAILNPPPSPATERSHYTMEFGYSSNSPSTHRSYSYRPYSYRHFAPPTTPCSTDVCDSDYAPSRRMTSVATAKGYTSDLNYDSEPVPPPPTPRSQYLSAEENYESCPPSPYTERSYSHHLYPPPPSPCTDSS
# [4] = biological target: T1, Activated leukocyte cell adhesion …; test: apparent KD, flow cytometry, curve fit; cell model HEK293 (cells also carry LRP6, bound by the E34N19 arm)
# Procedure: FIGS. 8A-8D depict the results illustrating improved binding and Wnt signaling blockade of guided anti-LRP6 bsAbs. […] HEK293 cells were incubated with varying concentration of H3/E34N19 (A) or PD32/E34N19 (B) TaFv-Fc and analyzed by flow cytometry. Apparent KD values were calculated based on the non-linear curve fittings. FIG. 8C depicts STF reporter assays on HEK293 cells. E34N19 IgG and E34N19/H3 bsIgG were evaluated for their β-catenin reporter inhibition efficacies on Wnt3a-transfected HEK293 cells. […] Values represent mean±SD for n=3. FIG. 8D depicts LRP6 occupancy when bound by bispecific vs, monospecific antibodies. HEK293 cells were incubated with the either the bispecific H3/E34N19 or the monospecific E34N19, and unoccupied LRP6 binding sites were detected by biotin-labeled E34N19 scFv-Fc. Normalized MFI from unoccupied sites over total is used to calculate the percent of the unoccupied effector antigen LRP6, from which the occupancy was calculated (100%−% unoccupied). Incubation with the anti-guide antibody only (H3) has no effect on the occupancy of the effector antigen (LRP6). […]
# The apparent antibody binding affinity was measured on target cells by FACS as described (An, Zhu). […] After 1 hr incubation, cells were washed and analyzed by FACS as described above. The apparent KD was determined by a curve fit method using MFI values as described (Benedict, An, Zhu).
# [5] = biological target: T3, Low-density lipoprotein …; test: cell-based or functional assay; remark: listed apart in the source
# [6] = biological target: T1, Activated leukocyte cell adhesion …; test: apparent KD, flow cytometry, curve fit; cell model HEK293-ALCAM^Int (cells also carry LRP6, bound by the E34N19 arm)
# Procedure: as §1
# [7] = biological target: T1, Activated leukocyte cell adhesion …; test: apparent KD, flow cytometry, curve fit; cell model HEK293-ALCAM^low (cells also carry LRP6, bound by the E34N19 arm)
# Procedure: as §1
# [8] = biological target: T4, Ephrin type-A receptor 2 (EphA2), human, on cells (human, UniProt P29317 24-976); test: apparent KD, flow cytometry, curve fit; cell model HEK293-EphA2^Int (cells also carry LRP6, bound by the E34N19 arm)
# T4 construct: whole, on cells; also called guide antigen
# T4 sequence (P29317 24-976): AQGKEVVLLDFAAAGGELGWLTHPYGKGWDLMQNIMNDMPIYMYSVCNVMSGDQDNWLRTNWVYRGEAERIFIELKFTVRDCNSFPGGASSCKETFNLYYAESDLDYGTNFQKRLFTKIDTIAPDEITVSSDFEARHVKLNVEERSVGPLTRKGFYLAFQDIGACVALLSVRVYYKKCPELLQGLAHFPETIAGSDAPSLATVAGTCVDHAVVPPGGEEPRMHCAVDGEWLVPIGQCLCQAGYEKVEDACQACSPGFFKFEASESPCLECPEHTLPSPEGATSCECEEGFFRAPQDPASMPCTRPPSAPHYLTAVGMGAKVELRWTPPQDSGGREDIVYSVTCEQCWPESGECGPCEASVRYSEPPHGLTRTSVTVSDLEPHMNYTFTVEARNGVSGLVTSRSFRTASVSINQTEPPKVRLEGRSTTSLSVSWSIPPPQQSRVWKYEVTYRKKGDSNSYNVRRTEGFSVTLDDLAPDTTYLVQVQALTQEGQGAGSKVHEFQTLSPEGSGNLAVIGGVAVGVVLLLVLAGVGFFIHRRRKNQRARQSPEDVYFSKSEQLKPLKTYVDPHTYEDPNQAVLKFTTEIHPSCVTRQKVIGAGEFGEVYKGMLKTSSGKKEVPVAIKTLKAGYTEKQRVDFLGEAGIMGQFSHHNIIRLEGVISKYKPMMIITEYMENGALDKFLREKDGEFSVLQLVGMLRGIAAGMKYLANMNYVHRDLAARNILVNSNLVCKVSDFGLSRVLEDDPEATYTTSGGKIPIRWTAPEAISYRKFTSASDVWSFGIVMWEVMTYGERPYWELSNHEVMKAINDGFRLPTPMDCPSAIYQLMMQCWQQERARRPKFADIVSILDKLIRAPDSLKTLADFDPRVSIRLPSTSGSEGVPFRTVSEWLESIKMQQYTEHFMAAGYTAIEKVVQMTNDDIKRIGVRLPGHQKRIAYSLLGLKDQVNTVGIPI
# Procedure: as §1
# [9] = biological target: T4, Ephrin type-A receptor 2 (EphA2), …; test: apparent KD, flow cytometry, curve fit; cell model HEK293-EphA2 (cells also carry LRP6, bound by the E34N19 arm)
# Procedure: as §1
# [10] = biological target: T4, Ephrin type-A receptor 2 (EphA2), …; test: apparent KD, flow cytometry, curve fit; cell model HEK293-EphA2^high (cells also carry LRP6, bound by the E34N19 arm)
# Procedure: as §1
# [11] = biological target: T4, Ephrin type-A receptor 2 (EphA2), …; test: apparent KD, flow cytometry, curve fit; cell model HEK293-EphA2^low (cells also carry LRP6, bound by the E34N19 arm)
# Procedure: as §1
# [12] = biological target: T4, Ephrin type-A receptor 2 (EphA2), …; test: apparent KD, flow cytometry, curve fit; cell model HEK293-EphA2#8 (cells also carry LRP6, bound by the E34N19 arm)
# Procedure: as §1
# The impact of the guide antigen density on the apparent KD of the bispecific was also evaluated (Table 2). For the ALCAM-guided bispecific, increasing guide antigen density concurs with increasing potency. […] Other mechanisms beyond avidity-driven apparent KD improvement may account for the bispecific phenomenon that we have observed. […] To test this hypothesis, LRP6 occupancy was investigated by the bispecific and monospecific on HEK293 cells. […] At the same concentration, only about 10% of LRP6 was occupied by the monospecific E34N19. The concentration required to achieve 50% occupancy of the effector LRP6 is about 50 pM for the bispecific but 20 nM for the monospecific, a difference of greater than 400-fold (FIG. 8D).
binder,measurement,setting,value
"M10A12/E34N19 TaFv-Fc (bispecific antibody, domain: Fc; Tandem scFv-Fc; also called ICAM-1-guided bispecific) QVQLVESGGGVVQPGRSLRLSCTASGFTFSSYGMHWVRQAPGKGLEWVAVISYDGSNKYYADSVKGRFTISRDNSKNTLYLQMNSLRAEDTAVYYCARGGRYSSNWFSYYYYGMDVWGQGTTVTVSSGGGGSGGGGSGGGGSSELTQDPAVSVALGQTVRITCQGDSLRSYYASWYQQKPGQAPLLVIYGENNRPSGIPDRFSGSSSGNTAFLTISRVEAGDEADYYCQVWDSSSDHPGVVFGGGTKVTVLGGGGSGGGGSGGGGSGGGGSGGGGSQVNLRESGGGLVQPGGSLRLSCAASGFTFSSYAMSWVRQAPGKGLEWVSAISGSGGSTYYADSVKGRFTISRDNSKNTLYLQMNSLRAEDTAVYYCAKVRGHGGNSGWVDYWGQGTLVTVSSGGGGSGGGGSGGGGSQSVLTQDPAVSVALGQTVKITCQGDSLRTYYTSWYQQRPGQAPILVLYANTHRPSSIPDRFSGSSSGTTASLTITGAQAEDEADYYCNSRDSSGNYLFGGGTKLTVL[letters of human IgG1 Fc not shown]",Kd,[1],0.871 nM
same,Kd,[2],0.843 nM
same,"IC50 (pM), anti-Wnt signaling activity, STF reporter; cell model HEK293",[3],1180 pM
same,"IC50 (pM), anti-Wnt signaling activity, STF reporter; cell model HEK293-ICAM-1^Int",[3],3.76 pM
same,"IC50 (pM), anti-Wnt signaling activity, STF reporter; cell model HEK293-ICAM-1^high",[3],1.13 pM
same,"IC50 (pM), anti-Wnt signaling activity, STF reporter; cell model HEK293-ICAM-1^low",[3],16.9 pM
"H3/E34N19 TaFv-Fc (bispecific antibody, domain: Fc; Tandem scFv-Fc from pFUSE-T-scFv-Fc: guide scFv, (Gly4Ser)5, anti-LRP6 scFv, Fc; also called H/6 TaFv-Fc; ALCAM-guided bispecific) QVQLVESGGGLVQPGGSLRLSCAASGFTFSSYAMSWVRQAPGKGLEWVSAISGSGGSTYYADSVKGRFTISRDNSKDTLYLQMNSLRAEDTAVYYCASRSLLDYWGQGTLVTVSSGGGGSGGGGSGGGGSNFMLTQNPAVSVALGQTVRITCQGDSLRSYYASWYQQKPGQAPLLVIYGKNNRPSGIPDRFSGSSSGNTASLTITGAQAEDEADYYCNSRDSSGNPVFGGGTKVTVLGGGGSGGGGSGGGGSGGGGSGGGGSQVNLRESGGGLVQPGGSLRLSCAASGFTFSSYAMSWVRQAPGKGLEWVSAISGSGGSTYYADSVKGRFTISRDNSKNTLYLQMNSLRAEDTAVYYCAKVRGHGGNSGWVDYWGQGTLVTVSSGGGGSGGGGSGGGGSQSVLTQDPAVSVALGQTVKITCQGDSLRTYYTSWYQQRPGQAPILVLYANTHRPSSIPDRFSGSSSGTTASLTITGAQAEDEADYYCNSRDSSGNYLFGGGTKLTVL[letters of human IgG1 Fc not shown]",Kd,[4],0.028 nM
same,"fold potency against monospecific E34N19 scFv-Fc, Wnt3a-induced STF reporter, A549",[5],> 100 fold
same,"IC50 (pM), anti-Wnt signaling activity, STF reporter; cell model HEK293",[3],15.1 pM
same,"IC50 (pM), anti-Wnt signaling activity, STF reporter; cell model HEK293-ALCAM^Int",[3],67.8 pM
same,"IC50 (pM), anti-Wnt signaling activity, STF reporter; cell model HEK293-ALCAM^low",[3],141 pM
same,Kd,[6],0.0452 nM
same,Kd,[7],0.136 nM
"RYR/E34N19 TaFv-Fc (bispecific antibody, domain: Fc; Tandem scFv-Fc; also called anti-EphA2/LRP6E3E4; anti-EphA2/LRP6 bispecific) QVQLQESGGGLVQPGGSLRLSCAASGFTFSSYSMNWVRQAPGKGLEWVSYISSSSSTIYYADSVKGRFTISRDNAKNSLYLQMNSLRAEDTAVYYCARYRLPDFWSGYPNYGMDVWGQGTTVTVSSGGGGSGGGGSGGGGSQSVLTQPPSVSGAPGQRVTISCTGSSSNIGAGYDVHWYQQLPGTAPKLLIYGNSNRPSGVPDRFSGSKSGTSASLAITGLQAEDEADYYCQSYDSSLSGHVVFGGGTKLTVLGGGGSGGGGSGGGGSGGGGSGGGGSQVNLRESGGGLVQPGGSLRLSCAASGFTFSSYAMSWVRQAPGKGLEWVSAISGSGGSTYYADSVKGRFTISRDNSKNTLYLQMNSLRAEDTAVYYCAKVRGHGGNSGWVDYWGQGTLVTVSSGGGGSGGGGSGGGGSQSVLTQDPAVSVALGQTVKITCQGDSLRTYYTSWYQQRPGQAPILVLYANTHRPSSIPDRFSGSSSGTTASLTITGAQAEDEADYYCNSRDSSGNYLFGGGTKLTVL[letters of human IgG1 Fc not shown]",Kd,[8],4.73 nM
same,Kd,[9],0.787 nM
same,Kd,[10],1.55 nM
same,Kd,[11],18.1 nM
same,"IC50 (pM), anti-Wnt signaling activity, STF reporter; cell model HEK293",[3],1350 pM
same,"IC50 (pM), anti-Wnt signaling activity, STF reporter; cell model HEK293-EphA2",[3],4.15 pM
same,"IC50 (pM), anti-Wnt signaling activity, STF reporter; cell model HEK293-EphA2#8",[3],8.36 pM
same,"IC50 (pM), anti-Wnt signaling activity, STF reporter; cell model HEK293-EphA2^Int",[3],12.7 pM
same,"IC50 (pM), anti-Wnt signaling activity, STF reporter; cell model HEK293-EphA2^high",[3],6.55 pM
same,"IC50 (pM), anti-Wnt signaling activity, STF reporter; cell model HEK293-EphA2^low",[3],24.4 pM
same,Kd,[12],1.12 nM
"PD32/E34N19 TaFv-Fc (bispecific antibody, domain: Fc; Tandem scFv-Fc) QVQLQESGGGLVQPGGSLRLSCAASGFTFSSYALSWVRQAPGKGLEWVSAISGSGGSTYYAGSVKGRFTISRDNSKNTLYLQMNSLRAEDTAVYYCAKGLIASHWGQGTLVTVSSGGGGSGGGGSGGGGSSELTQDPAVSVALGQTVRITCQGDSLRSYYASWYQQKPGQAPVLVIYGKNNRPSGIPDRFSGSSSGNTASLTITGAQAEDEADYYCNSRDSSGIHLVFGGGTKLTVLGGGGSGGGGSGGGGSGGGGSGGGGSQVNLRESGGGLVQPGGSLRLSCAASGFTFSSYAMSWVRQAPGKGLEWVSAISGSGGSTYYADSVKGRFTISRDNSKNTLYLQMNSLRAEDTAVYYCAKVRGHGGNSGWVDYWGQGTLVTVSSGGGGSGGGGSGGGGSQSVLTQDPAVSVALGQTVKITCQGDSLRTYYTSWYQQRPGQAPILVLYANTHRPSSIPDRFSGSSSGTTASLTITGAQAEDEADYYCNSRDSSGNYLFGGGTKLTVL[letters of human IgG1 Fc not shown]",Kd,[4],0.578 nM
same,"IC50 (pM), anti-Wnt signaling activity, STF reporter; cell model HEK293",[3],119 pM
